The values below come from the RNAGym collection of RNA variant scans (doi:10.7554/elife.90254).

B1: LINE1-mini (parent)
chain: GGCAGAGCUCAACACAGCGUGGCAAAGUGGCUGUGGCUAGACUGCC

Read counts are not given, so values of variants with three or more changes are uncertain.

The data set covers variants of B1. The data set is described as follows: self-cleavage, relative activity (ratio to wild type); higher = more cleavage; in vitro, sequencing; the parent is a self-cleaving ribozyme.
Take G1A A4C C23U A39U C42A: the self-cleavage was 0.02.
In the case of U32A A39G U43A, the self-cleavage is 0.06.
In the case of A24U U28G U38C it was 0.4; in that of U28G G36U U38A, 0.01.
Then G17C G22U C31A G33U C37A U43A, with 0.03.
In the case of A4U U9C A12G C23A G40U it was 0; in that of U9A U20G A25U, 0.06; in that of A6G C8U U32A A41G, 0.15.
Consider G1C U28A U34A, for which the self-cleavage was determined as 0.02.
Then G5U A6G C8G G22C, with 0.02; and G5U U38A C46U, with 0.05.
Then U28G G30C C37G, with 0.
In the case of G5U G7A G35U U38G it was 0.01.
For the variant C3G G7U C10G U20C G27C, the self-cleavage was 0.02.
Then G1A C37G U38C, with 0.24; and C10U U20A G27C G29U G40C, with 0.01.
In the case of C3A G27C U28G C31U it was 0.13; in that of C13A A24U G27C G44C, 0.08; in that of A4C A6U G22A U28C, 0.14.
As for G21U C31U G36A U43C C46A, the self-cleavage is 0.03.
Then C15U G22C U38A A39C, with 0.1; and C3G U20C U32C, with 0.09.
Then A14G C23G C42G, with 0; and G1C A4U C15A G44A, with 0.03; and G2C C13A A25U C46A, with 0.01.
Then U20A U38G U43G, with 0; and U32A G33U U34C G36A, with 0.05; and A12U G29C G35C, with 0.07.
With C31G U38C G40C, the self-cleavage came out at 0.03.
Then C3G G22U C37U, with 0.08; and G1C A24G C31A G36A, with 0.01; and C18U G27U G30U C45G, with 0.08.
In the case of C18U G22C U38C C45U it was 0.03.
In the case of G2C G7A C8A A12G A39C C42A it was 0.08; in that of C3G G19C C45A, 0.29; in that of A4C G35U A41U, 0.13.
Take G5C G33A U34A C46A: the self-cleavage came out at 0.11.
In the case of G21U A26U G29U it was 1.02; in that of C3A G5A U32C, 0.49; in that of C3U G5C G36A A41G, 0.54.
In the case of G19U U34C A41G it was 0.04; in that of G5A G22C G35A, 0.07; in that of G30A U32C A41C C42A, 0.01.
Then C8U A16G G21U, with 1.58; and C13A C15A G33C, with 0.01.
Consider G7A C10U G29C G44A, for which the self-cleavage is 0.02.
In the case of A11U G19A G21A A39G it was 0.26.
In the case of G17A C23U U38G C46U it was 0.02; in that of A11G G19U A41C C42A, 0.01.
Then A6G C15A G22A A25G U28G U38G C45A, with 0; and A14G G29C C42G, with 0.03.
With G17A G19A U34C G40U A41U, the self-cleavage was determined as 0.08.
On to A6G C10G A12G A24U U32C U34C, for which the self-cleavage was found to be 0.06.
As to A26U G29C C45G, the self-cleavage stood at 0.01.
In the case of A4G G7C C13A U20G C31G A39G, the self-cleavage amounted to 0.02.
Then G5U A11G C42A, with 0.01.
Then G1C A6G G17A G35C U43A C46U, with 0.02; and G21U A26U G30A C45G, with 0.45.
Then G1A A4G G22C G29U, with 0.1; and G1A G17A A25C, with 0.12.
As to G17A C18A U20A A41G, the self-cleavage was found to be 0.01.
Then A16G C18A G40C, with 0.02.
Then A6C C8G C10U A12C U28G G36C C42G, with 0; and G2U G5U G7U G22U G35C G44U, with 0.06.
Then G2C U34G G36A G40A, with 0.1; and A4C A6C G27A G36U, with 0.11; and A6G C18G C42A, with 0.03.
Consider A4C A16U U34G G44A, for which the self-cleavage was 0.17.
Then A11G G19A C45U C46A, with 0.01; and G1C G19A G30C C31A, with 0.06; and C10G A11G G30U U38A C42A, with 0.01.
Then G29U C42G C45A, with 0.06; and U9G U20A G27C, with 0.06.
Then G7U G17A G30U G33A, with 0.05; and A11U U34G A41G C45G, with 0.01; and G5A G19U G44C, with 0.04.
For the variant G17U G21A U38A, the self-cleavage was determined as 0.09.
Then G2C U9A C23A C31A, with 0.05; and C10G G22C C31A G36A, with 0.03; and U9A G19U G35U, with 0.13.
Then G1U C23A G35C, with 0.1.
In the case of A6G C10G G29A A41G it was 0.01; in that of C15A C18U G22U G27A, 0.09.
G7C G17A A24G G30U A39U: the self-cleavage came out at 0.02.
Regarding G1U G5A C18A C45A, the self-cleavage is 0.08.
Then A4U C10A A25U U32G, with 0.06; and G5A C37U A39C G44U, with 0.17; and G19C U34C C42U G44A C45G, with 0.01.
In the case of G2A U9G C18U U38A it was 0.03.
In the case of A25C G35U C45A it was 0.02.
Regarding G22U C23A U32C U38A, the self-cleavage worked out at 0.07.
Regarding G2C C15G U43C, the self-cleavage was found to be 0.01.
In the case of C8U U20G A25G G36U it was 0.02; in that of G7C C23A G27C G30C, 0.07; in that of A4G C15U U20C A26U, 0.
In the case of C3G A6G G30A, the self-cleavage amounted to 0.51.
On to C18A A25C G44C, for which the self-cleavage worked out at 0.1.
In the case of A12U G29C G40A it was 0.06; in that of C3U C8A C13A C15A G27U G40C A41C U43G, 0.43.
As for A12U U38A G44U, the self-cleavage was 0.04.
Regarding U9G G21U G22A G29U, the self-cleavage turned out to be 0.04.
Turning to A14G U28G G33C, the self-cleavage amounted to 0.03.
Then G27U G35A G44C, with 0.07; and A24G A26U G35A, with 0.09.
In the case of C15A C23A A26C G29U C42A it was 0.13.
Then G1A C3G G21U, with 0.49; and C8G A16C C42A, with 0.02.
Take A6G G7C C18G A26C: the self-cleavage was found to be 0.07.
G1C C13U U38C: the self-cleavage stood at 0.
In the case of C8A C13U G33C it was 0.09; in that of A6C A16U G22A G35A, 0.02; in that of C10U A12C G44A, 0.03.
U20C C23U A39C: the self-cleavage worked out at 0.02.
Take A16U C23U G30U G36A: the self-cleavage stood at 0.05.
Then C13A G30U C31U G33A C37U, with 0.09; and C3A A6G U28C U34G, with 0.12; and A6C A16U C18G C42U, with 0.01.
Then G5C C23A G36U, with 0.04.
Then G5U A14C C18U, with 0.05.
For A11G C18G C45A, the self-cleavage was 0.01.
In the case of G5A A25U U32A it was 0.06.
Then C8U C18A G19U A39U, with 0.11; and C10A A24U A41C U43A, with 0.
Then A4C G44C C46U, with 0.05; and C8U G35A U38C, with 0.05; and A6G U9A A39G, with 0.27.
Turning to A14C C15A U20C C23U G36A, the self-cleavage came to 0.05.
In the case of A6U C15A C46U it was 0.15; in that of G5U G27U A41U, 0.04.
In the case of A4C G17U G22U it was 0.05; in that of U34G C37G G44U, 0.04; in that of G5U G27C U43C C46A, 0.01.
In the case of G30U C42A G44C it was 0.03; in that of A4U A16U A41G, 0.03; in that of G2A C15G G22U, 0.04.
For the variant G1U G17A G21U G29A, the self-cleavage was 0.13.
As for C10U C13U G19C A39C, the self-cleavage stood at 0.02.
In the case of C15U G19A U32A C42A it was 0.04; in that of G30A G35C U43C, 0.11.
Then G1U A14U G17C U20G G30A, with 0; and G2U G21U C37U, with 0.03.
In the case of G1C G7U C10G U20C G21A A25U U38C it was 0.01.
On to A14U G22A A25U G27A C31A, for which the self-cleavage came to 0.1.
Then C8A A14U C15U G22A, with 0.14; and A14G A25C C37A A41G C46U, with 0.14.
Then G1U G2U C3A, with 0.74; and C8A U9C G22U G27A, with 0.11.
In the case of U9A G21C G35U A41G, the self-cleavage was 0.27.
Then C18U G21C A24U U28C, with 0.46; and C23U G36U U38G, with 0.01.
Then A4C G7U A14G C15A A26C G36U C37A, with 0.72.
In the case of G17U G21C U34C it was 0.04; in that of C18A G22A C37U G44C, 0; in that of C3A G5A A16U A39C, 0.21.
On to G5A G40C C42G, for which the self-cleavage was 0.02.
In the case of A12G G21A G29U it was 0.01; in that of C3G G7C C8G C23A, 0.09.
In the case of G1U C13G G27A A39U it was 0.13; in that of G5U A14C C15A C18A G44A C45U, 0.01; in that of C23A G33U U34G, 0.04.
In the case of G2C A4U C8A U28C it was 0.04; in that of C3U G5C A6U C18U G27C, 0.19.
For A11G G19C A25C, the self-cleavage stood at 0.01.
For the variant G2C C10A G19A U34C G36A G44C, the self-cleavage stood at 0.01.
Then A12G G19C G22A, with 0.01.
Then C8A A11C A14C G44C, with 0.01; and A6U C8G C42A U43C, with 0.02.
